Experimental data reported in PubChem BioAssay AID686979 (National Center for Advancing Translational Sciences (NCATS), 2013).
In all, about 420,000 compounds went through this assay and about 50,000 (12%) were called active. Inconclusive means that the source gave no clear call. Such entries were picked first, then a sample of the others. The call rests on the fitted dose curve; in most records, active means well fitted inhibition curve with a large enough effect; inconclusive means small, poorly fitted or top-dose-only effect; inactive means flat fitted curve, though single readings scatter. No potency is given beside an inconclusive call; the fits are too rough.

Assay: qHTS for Inhibitors of human tyrosyl-DNA phosphodiesterase 1 (TDP1): qHTS in cells in presence of CPT; further: nearly all actives have a fitted effect of over 55% in size
Conditions: chicken DT40 Tdp1-/-;hTDP1 cells + 20 nM CPT, ATP luminescence, 48 h; activity change, negative = growth inhibition: at 46.2 µM (top of the series) unless noted
Method in brief: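 Chicken DT40 Tdp1-/- cells complemented with human TDP1, 400 cells/well, exposed to compounds plus 20 nM camptothecin for at least 48 h at 37 C; viability read as ATP content by CellTiter-Glo luminescence.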
On the % scale 0 is the no-effect control and ±100 the full control effect; potency means the concentration at half of the fitted maximal effect; tags describe the fitted curve by direction and shape.

| SMILES | Potency | activity change, negative = growth inhibition |
| --- | --- | --- |
| CCOc1ccc2nc(N3CCCC(C(=O)Nc4ccc(Br)c(C)c4)C3)sc2c1 (stereo unspecified) | inconclusive [inhibitor, single point] |  |
| C[C@]12c3[nH]c4ccc(Cl)cc4c3CCN1C(=O)[C@@H](CC(=O)NCCc1ccccn1)C[C@@H]2C(=O)N1CCOCC1 | inconclusive [inhibitor, full curve, poor fit] |  |
| O=C(Nc1ccccc1F)c1nc[nH]c1C(=O)NCc1ccccc1 | inconclusive [inhibitor, single point] |  |
| CCC(=O)N1CCC1(C)C(=O)Nc1ccc2scnc2c1 (stereo unspecified) | inconclusive [inhibitor, single point] |  |
| CCCCN(C)C(=S)Nc1ccsc1C(=O)OC | inconclusive [inhibitor, single point] |  |
| COc1cccc(C(=O)N2c3ccccc3Sc3ccccc32)c1 | active: 11.6 µM |  |
| O=C(CN1C(=O)NC2(CCCC2)C1=O)OCCOc1ccc(Cl)cc1Cl | inconclusive [inhibitor, single point] |  |
| Cc1nc2c(ccc3nc(NC(=O)Cc4ccccc4)sc32)s1 | inconclusive [inhibitor, single point] |  |
| CCOC(=O)c1cnc2ccc(C(=O)OC)cc2c1Nc1ccc2c(c1)OCCO2 | inconclusive [inhibitor, single point] |  |
| CC(C)(C)NS(=O)(=O)c1ccc2[nH]c3c(c2c1)CCCCC3 | inconclusive [inhibitor, partial curve, poor fit] |  |
| Cc1nc2cc(N3CCCCC3)c(NC(=O)c3cccnc3)cc2c(=O)n1Cc1ccccc1 | inconclusive [inhibitor, single point] |  |
| O=C(NCCCN1CCN(c2ccc(F)cc2)CC1)C1CCCN(c2ncnc3c2nc2n3CCCCC2)C1 (stereo unspecified) | inconclusive [inhibitor, single point] |  |
| COC(=O)c1[nH]c2cccc(OC)c2c1NC(=O)CCN1CCSCC1 |  | inactive: 0.0773% |
| S=C(NN=C1CCCCCC1)Nc1ccc(Cl)cc1 | active: 29.1 µM |  |
| CCOC(=O)c1c(NC(=O)CSc2nnnn2-c2ccccc2)sc2c1CC(C)(C)NC2(C)C | active: 16.4 µM |  |
| COc1ccc2c(c1)NC(c1ccc(OCC(C)C)cc1)=NC(c1ccncc1)=N2 | inconclusive [inhibitor, single point] |  |
| O=C(NCCc1ccccc1)c1nc(-c2cccs2)no1 |  | inactive: -5.92% |
| Cc1cccn2cc(-c3ccc(S(=O)(=O)N4CCCCC4)cc3)nc12 | inconclusive [inhibitor, single point] |  |
| CCOC(=O)c1c(C)[nH]c(NC(=O)N2CCOCC2)c1C | inconclusive [inhibitor, single point] |  |
| COc1ccc(NC(=O)c2cc(-c3cc(C)cc(F)c3)n[nH]2)cc1OC | active: 25.9 µM |  |
| CCOC(=O)CCc1c(C)nc2c(c(C)nn2C(C)(C)C)c1C | inconclusive [inhibitor, partial curve] |  |
| COc1ccc(CCNC(=O)c2cc(Sc3cccc(Cl)c3)nc3ccccc23)cc1OC | active: 8.2 µM |  |
| COc1ccc2c(c1)CC(C(=O)N1CCC(C(N)=O)CC1)CO2 (stereo unspecified) |  | inactive: -8.95% |
| CCOc1ccc(CCNC(=O)c2cnccn2)cc1OCC |  | inactive: 0.838% |

| SMILES | Potency | activity change, negative = growth inhibition |
| --- | --- | --- |
| O=C(Nc1cc(Cl)cc(Cl)c1)c1ccc(F)c(S(=O)(=O)N2CCCCCC2)c1 | active: 5.17 µM |  |
| Cc1ccc(C(C)C)c(OCCn2cc(C(=O)c3ccco3)c3ccccc32)c1 | active: 18.4 µM |  |
| COc1ccccc1N1CCN(C(=O)c2oc3ccccc3c2NC(=O)C(C)Oc2ccccc2)CC1 (stereo unspecified) | inconclusive [inhibitor, single point] |  |
| Cc1ccc2nc(NC(=O)c3ccccn3)sc2c1 | active: 4.61 µM |  |
| CCOc1ccc(-c2n[nH]c3c2C(c2ccccc2OC)N(c2ccc(Br)cc2)C3=O)cc1 (stereo unspecified) | active: 16.4 µM |  |
| CCc1ccc2[nH]c(=O)c(CN(CCCN3CCOCC3)C(=O)Nc3ccc(F)cc3)cc2c1 | inconclusive [inhibitor, single point] |  |
| CCN(CC)c1ccc(CNc2nc3ccccc3n2C)cc1 |  | inactive: -26.8% |
| COc1ccc(CCNc2oc(-c3ccc(OC)c(OC)c3)nc2C#N)cc1 | active: 11.2 µM |  |
| Cc1cc(C(=O)N/N=C/c2cc(N=Nc3ccccc3)ccc2O)n[nH]1 | active: 5.8 µM |  |
| Cc1nc2c(-c3ccc(F)cc3)c(C)nn2c(C)c1CCC(=O)Nc1ccccc1 | inconclusive [inhibitor, single point] |  |
| C=CCSc1nnc(CNC(=O)c2ccccc2C)n1C(C)C | inconclusive [inhibitor, single point] |  |
| O=[N+]([O-])c1ccc(NCCNS(=O)(=O)c2ccccc2)c(C(F)(F)F)c1 | active: 25.9 µM |  |
| Cc1ccccc1NC(=O)C1c2cccc[n+]2CC(=O)N1c1c(C)cccc1C (stereo unspecified) | inconclusive [inhibitor, single point] |  |
| O=C(NCCc1nnc2ccc(NCCCN3CCOCC3)nn12)c1ccccc1 |  | inactive: -1.97% |
| COc1cccc(NC(=O)CCNC(=O)N2CC(=O)Nc3ccccc32)c1 |  | inactive: -3.04% |
| COCCNC(=O)c1noc2c1CCc1cc(OC)ccc1-2 |  | inconclusive: -33.7% [inhibitor] |
| S=c1[nH]nc(-c2cc3ccccc3o2)n1Cc1ccccc1 | inconclusive [inhibitor, full curve, poor fit] |  |
| O=C(NCc1ccccc1)c1ccc(CN2CCC(Cc3ccccc3)CC2)cc1 | inconclusive [inhibitor, single point] |  |
| Cc1ccnc(NC(=O)c2cccc(S(=O)(=O)Nc3ccc(C)cc3C)c2)c1 |  | inactive: -2.96% |
| CN1C(C(=O)Nc2ccc(OC(F)(F)F)cc2)=CC(c2ccc3c(c2)OCO3)=NS1(=O)=O | inconclusive [inhibitor, single point] |  |
| O[C@H]1CN(CC2CCCCC2)[C@@H](c2ccccc2)C[C@@H]1n1cc(C2CC2)nn1 |  | inactive: -21.7% |
| O=C(C1CCC1)N1CCc2cc(S(=O)(=O)NCc3cccnc3)ccc21 | inconclusive [inhibitor, partial curve] |  |
| COc1cc2c(=O)n(Cc3ccccc3)c(=O)n(CC(=O)Nc3cc(C(F)(F)F)ccc3Cl)c2cc1OC | inconclusive [inhibitor, single point] |  |
| CC(=O)N1CCc2cc(S(=O)(=O)C(C)CC(=O)Nc3ccc(OC(F)(F)F)cc3)ccc21 (stereo unspecified) | active: 20.6 µM |  |

| SMILES | Potency | activity change, negative = growth inhibition |
| --- | --- | --- |
| COC(=O)c1ccc(CN(c2ccc(C(=O)O)c(O)c2)S(=O)(=O)c2ccc(Cl)c([N+](=O)[O-])c2)cc1 | active: 16.4 µM |  |
| CCN1C(=O)N[C@H](c2ccc(Br)cc2)C(C(C)=O)=C1C | active: 20.6 µM |  |
| CCOC(=O)/C(=N\Nc1cccc(C(F)(F)F)c1)N(CCOC)CCOC | inconclusive [inhibitor, single point] |  |
| CCOC(=O)C1=C(c2ccccc2)NC(=O)NC1c1cc(OC)c(OC)cc1OC (stereo unspecified) |  | inactive: 3.86% |
| CCOC(=O)[C@H]1[C@H]2COc3ccc(Br)cc3[C@@H]2N2C(=O)c3cc(OC)c(OC)cc3NC(=O)[C@@]12C | inconclusive [inhibitor, single point] |  |
| CC(C)(C)C(=O)CSc1ncnc2c1cnn2Cc1ccccc1 |  | inactive: -11% |
| O=C(c1cc(COc2cccc(C(F)(F)F)c2)on1)N1CCCC1 | inconclusive [inhibitor, single point] |  |
| CCOC(=O)C1(Cc2ccccc2C)CCCN(C(=O)c2sccc2C)C1 (stereo unspecified) | active: 18.4 µM |  |
| O=C1Nc2cc(Cl)c(Cl)cc2N(O)N1c1cc(Cl)cc(Cl)c1 |  | inactive: -23% |
| C[C@@]12C(=O)N(Cc3ccccc3)CC(=O)N1[C@H]1c3ccccc3OC[C@@H]1[C@@H]2c1ccccc1 | inconclusive [inhibitor, single point] |  |
| O=C(COc1cc2oc(=O)c3c(c2cc1Cl)CCCC3)N1C[C@H]2C[C@@H](C1)c1cccc(=O)n1C2 |  | inactive: -5.63% |
| Cc1ccc(N(CC(=O)NCc2ccccn2)S(=O)(=O)c2ccccc2)cc1Cl | inconclusive [inhibitor, single point] |  |
| O=S(=O)(c1ccc(S(=O)(=O)N2CCCN(Cc3ccccc3)C2)cc1)N1CCCCCC1 | inconclusive [inhibitor, single point] |  |
| Cc1ccc(/C=N/N(C)S(=O)(=O)c2ccc(C)cc2)cc1 | active: 23.1 µM |  |
| N#CC(Sc1ccccn1)c1ccc(Cl)cc1 (stereo unspecified) | inconclusive [inhibitor, single point] |  |
| Cc1cccc(C)c1OCCNC(=O)C(=O)NCc1ccco1 | active: 1.84 µM |  |
| CC(=O)Nc1cc(-c2ccc(N3CCN(C)CC3)cc2)cn2c(-c3ccc(F)cc3)cnc12 | active: 5.17 µM |  |
| Cc1ccc(S(=O)(=O)N2CCOC2CNC(=O)C(=O)NCc2ccncc2)cc1 (stereo unspecified) |  | inactive: -11.2% |
| Cc1ccc(CN2CCNC(=O)C2CC(=O)N(C)CCc2ccccc2)cc1 (stereo unspecified) | inconclusive [inhibitor, single point] |  |
| Cc1ccc(S(=O)(=O)N(C)C[C@@H]2OCc3cnnn3CCCC(=O)N([C@@H](C)CO)C[C@@H]2C)cc1 |  | inactive: -0.541% |
| COc1cc2nc(SCC(=O)Nc3ccc(F)cc3)n3nc(CCn4c(C)nc5ccccc54)nc3c2cc1OC | active: 2.06 µM |  |
| CCOC(=O)c1c(C)oc2ncnc(NCCc3ccccc3)c12 | active: 20.6 µM |  |
| CCc1ccc(N2CCn3c2nc2c3c(=O)n(Cc3cccc(C)c3)c(=O)n2C)cc1 |  | inconclusive: -4.39% [inhibitor] |
